In the RNAGym collection of RNA variant scans (doi:10.7554/elife.90254) one finds self-cleavage data, which are given here for 83 variants.

The labels stand for the following.
B1: LINE1-full (parent)
chain: UACGUAGGUGGUUUUCCCCUGAUAGUGCUAAGGGGGCCUGGAAGUUUGGACUGGGCAGAGCUCAACACAGCGUGGCAAAGUGGCUGUGGCUAGACUGCCUCUCUGGAUUCCUCGUCACUCAGCAGGGCAUCUCUGAGAGAAAUGCC

The source gives no read counts; variants with many changes may rest on few reads.

The data set covers variants of B1. Kind of data set: self-cleavage, relative activity (ratio to wild type); higher = more cleavage; in vitro, sequencing; the parent is a self-cleaving ribozyme.
For U12G A129U A138G, the self-cleavage stood at 1.47. For U12G U15C U39C A79U A92G G126U U134C A141G, the self-cleavage is 0.72. Under U12G U39A A69C stands 0.29; under U12G U23C A57G G74A U85A G137A, 0.1; under U12G U13A U85C U100C, 0. As to U13A A22U C99U, the self-cleavage worked out at 0.24. Under U12C U119C A138G A142G stands 2.14; under U12C U73C A79U A94G U115A, 1.38. With U12G U115C U134C U143A the figure was 0.9; with U12G U20C U62C A67U C120U U134C, 0.1; with U12C U47A U132C, 0.88. Under U12G U96A U130C stands 0.5. With U12C U62A G88A, the self-cleavage was found to be 0.

For U12G U62C U104A A117G, the self-cleavage stood at 0.

U12C U52G A142G: the self-cleavage was found to be 1.41. With U12G C38A U81G the figure was 0.92. Under U12C U85A U143C stands 0.01; under U12G A57U A67U A77G C131U, 0.13; under U12C U96G U115A, 0.47. On to U12G U20C A65G U73C, for which the self-cleavage was determined as 0. Under U12G C38U U52A A77G U85A G97A U130A stands 0.22; under U12C U52A A65G U96C, 0; under U12C U87C U109A A142G, 0. Under U12G G33A U39A U115C A129G stands 0.4. Regarding U12G A50U A67G, the self-cleavage was 0.42. With U12G U15C C19U G34U the figure was 1.1; with U12C U52A A59G A92G, 0. Under U12G A77U U134C stands 1.24.

For the variant U12C U130C U143A, the self-cleavage is 1.62. Under U13A A31U U52A U85A A117G U119C U130C G137U stands 0; under U12G A31G A65G, 0.51. Under U12G A59G A117G stands 0.32.

U12C U52A G55U: the self-cleavage stood at 0.6. With U12G U20A U47A U62A A141G the figure was 0.04; with U12G U112C U134A A141G, 1.48; with U12G U52C C98U, 0. Consider U12G U85C U119C, for which the self-cleavage was 0. With U12C U81C U85C U134C the figure was 0; with U12G U20C A67G U96C C99U, 1.02; with U12G G70A U108C, 0.53. With U12G G54A A140G the figure was 0.51; with U12G U15C A59G U109A A117U U130C, 0.49.

For U12G U26C G54U U96C A141G, the self-cleavage was 0. Under U13A A42G A78G A138G A142G stands 1.34. With U12G A65U U119C A140G A142G the figure was 0.53; with U12G A67G U96C, 0. U12G U26A U112C A138U: the self-cleavage is 0.91. Regarding U12G G40U U46A A94G U115A A129G, the self-cleavage stood at 0.12.

As for U12C U47C A140G, the self-cleavage was 2.8. With U12G G34U U96C U100A G139A the figure was 0.54; with U12G U91C A92U U143A, 0.31. Take U12C U102C U119C A124U A142G: the self-cleavage stood at 2.87. With U12G A57G U62C A107G U112A the figure was 0.46; with U12C U47A U91C U134A, 0.67.

On to U12C U85A G106U A142G, for which the self-cleavage was found to be 0.13. Under U13A A22G U52C A59U U132C stands 0. With U12G A79G A121G A124U the figure was 2.45.

Consider U12G G44U U115C, for which the self-cleavage turned out to be 0.77. Under U12G U29A A124G stands 0.6; under U12C U81G U119C A140U, 1.02; under U12G U100A G126U A142G, 0.94. Under U12G A24G U85A U104C A138G A140G stands 0; under U12G A24U U104A, 1.19; under U12C U47C U62C C113U, 0.11. With U12G A57G A124U the figure was 0.84; with U12G U108C U115C, 1.19. Turning to U12G A64U U115C, the self-cleavage came out at 0.66. Under U12G G58U U102A C110A U115C A124G stands 0.1; under U12G A124U U132C U143A, 1.44; under U12G U45C U62A, 0.24. Under U12G A69U A107G stands 0. Under U12C U47A U81A C90A stands 0.1; under U12G U20C U26C, 1.62.

For U12C U52A A64G, the self-cleavage was 0.36. For the variant U12C U112C U143C C145U, the self-cleavage turned out to be 0.76. Under U13A A59G A67U stands 0. In the case of U13A A31C A77C A92G, the self-cleavage was 0.19. With U12G U20C A65G G114A the figure was 0.11. Turning to U12G U39A A65G, the self-cleavage was determined as 0. Under U12G A42G G60A stands 0; under U12C U52C U91C, 0.59; under U13A A43G U46A, 1.01. Under U12G U14C U119C stands 1.31.
